Measured values published in the RNAGym collection of RNA variant scans (doi:10.7554/elife.90254).
The source gives no read counts; variants with many changes may rest on few reads.

B1: OR4K15 (parent)
chain: GUUAACGGUCAUAGGCCAUGGAAACUAGGAGCACCAUUUCGCUGCCAGUGAAGAAAUGAACAAAGAAAAUCUGGGCCAGGCAGGCAUCAAAAGAAAUAGUCUUGCGCUCAACCAGAAAGUCUGUAAUCAUUUUAAGGGUA

Variants of: B1
Experiment: self-cleavage, relative activity (ratio to wild type); higher = more cleavage; in vitro, sequencing; the parent is a self-cleaving ribozyme

Variant	self-cleavage
A11C U70C A89G G93A	0.26
A52U A64G G75A U108C C113G	0.01
A24U A68C U103C G119U	0.99
A11G A24G A140G	1.63
U19C A54G A94C U102C	2.88
U2C U72C U122C	0.16
A86G A92G C107U	0.01
A69G G75C A111G G123A	0.11
G7A A22G A63G U108C	0.04
U9G U19A A67G A69U	1.23
A56U A91G U127C	0.62
A33G U70A U132C	0.24
U2A A47G A67G A95U G123A	1.2
U37C U87A U120C U130A	0.47
U49C A68G A91G A94G G138U	1.25
A36G A56G G73U	0.19
U49C U57C A89U U131C	0.71
A30G U39A A91G U97A	0.94
U102C A117G A140G	2.74
A22G A47G A52U C101U A114U	0.04
U19A U38C A62U	1.87
A11G A22G G41U A63G U87C	0.82
A11U A18G G75C A118U	0.06
A11G A51G U103C	1.28

Variant	self-cleavage
U49C A62G U120C	0.73
U70C U72C A110G U130C	0.07
A59G U100A U108C A126G	0
A11G A23G A52G	0.96
G1A A47G A118G G138A	1.35
G21U A33G U38A A117G	0.85
A24G A92G A129C	0.6
A55G A66U U87C A110G	0.15
U19A U43C A67G	1.47
A11G U122C A135U	1.03
A82G A91C U127G	0.6
A68G A125G A126C	0.41
C32U C101U A140G	0.59
A18G A82U U127A	0.4
U19C A78G A98G U130C	0.04
A60G A66G A94G U108C U132A	0.01
U19C A33G U124C	0.74
U19C A66U A82U	0.26
A54U G104A A117G	0.02
A23G U43C A62U A64G	1.72
A33G A55G A66U A92G U97A	0.44
A11G U38C U39A	0
A24G A59U A82C U122C A134G	0.1
U2C U122C U130C A135G	1.76

Variant	self-cleavage
A23G C35U A54G	0.78
A69G A110G U122C	0.08
A11U U39A U57C	0.96
A18G A69G A95G A96G	1.22
U38A A66G U122G	2.89
A62G A64G A89U A114G	0.52
A18G A64G A78C U102G	0
U26C A30G A59G	0
U72A U97A A110G	0.02
A60G A90G A94G U127C A140G	0.13
U38A G104A A114G	0.03
U43C U100C U108C A117U	0.02
A52G A67G A82G A91G	0.09
U19C A86U U102C U122C	1.3
A52U A62G A98G	0.44
U2C A33G A98G	0.38
U39C A56G A67G	1.97
A51G U122C A126G	1.43
A33G G50U G58U U122C U127C U131C	0.34
U2C A60G A96U	0.71
U3C U70C U87C A110G	0.12
G7U A30G A114G	0.77
U49C U87A U102A	1.06
C32U A94G A118G	0.99

Variant	self-cleavage
U3C A78U A95G	0.87
U2A A62G A114G	0.39
G8A A59C A67U	2.33
U2C A62U A64G	1.16
U37C A54G A66G A94G	1.07
A67G A114U U131C	0.02
A55U A67G U87C A110G	0.09
A18G A23C A36G A117U U120A U132G	1.33
U87C U108C U132C A134G	0
U39C A62G A69C C112U	0.03
C6U U9C A13G U57C G75C	0.54
U37C A78U A134G	0.22
A11C U37C A82G A116G	0.13
A23G A82U A92G A111G	0.05
A36G A66U A78U	0.76
C32U A33G A60G A117G	1.85
A11G U102A A117G U127C	0.22
G65U G74A U102C	0.5
U43C A94G C105U	0.37
A24G A95G G104A U122A	0.01
A55G U72A U100C	0.43
A95G A129G A134G	1.55
U2C A51G U57C	1.26
U2A A91G U103C	0.73

Variant	self-cleavage
C46U A56G A94U A95G C105U A129C	0.18
A62U A64G A114G	0.21
A11G C45A A56G U131C	0.84
A18U C34U A89G	1.99
G58A A69U A91G U103A	0.5
A55G A59G A60G A67G	0.31
U12C A59G A66G U70A C109U	0.17
G7A G31U U39C A114U	0.19
A22G G58A A114C	0.05
G50C A54G U102C	2.11
A47G A59G A78U A96U	0.15
A18G A60G A92G	1.24
G50A A55G U102C	1.59
U19A A69G A94G U132C	1.9
A60U A66G A98U	1.95
U19A A24G A33U A62G U108C	0.05
U3G A117U A134G	0.83
U9C U43C U49A A63U A90C A98U	1.56
A51U A78U A90G A134G	0.08
A30G U37C U43C A54U	1.12
A4G U38C U122C	1.5
U43A A94G U102C	1.86
U9C C113U U130C	0
A67G A92G A114G	0.19

Variant	self-cleavage
U39G A51U A56G	1.55
U43C A68G A129G	1.28
A68G U127C G136A	0.87
A92G A111G A118G	0
A67G A91U U132C	1.48
U2C A47U A94G U132C	0.19
U19C A27G G106U	0.03
U19G A33G A66G A90G U102C A117G	2.15
A33G A36G U72C A117G	0.26
A24G A27G A110G	0.19
U3C A23U A30G A52G A54U	1.61
U38A U39A A98G U100C	1.55
U43C A47U A96G	1.26
A4G G84A A114G U120A A126U A134G	0.05
A22U C77U A96G	2.55
C42G A59G U100C U132C	2.64
U2A U97C C107U U108C	0.04
A4G U49C A95G	1.48
U70C U102C A110G A129U	0.12
A18G A36U A78G U103A	0.23
A33G A64G U87C A114G A117G	0.22
A11U A82G A111G	0.04
G84A A118C U124C A125U	1.18
U37C U49C A82U U122A	0.15

Variant	self-cleavage
A13G C40A A91G A92G	1.65
A13G U37C U39C A69G U122C	1.29
U12C A51U U108A	0.03
A18G C71U A126G U132C	0.05
U3A G15C A55G	0.96
A36G A52G A60G U122C	1.19
U9A A110G U122C	0.09
A52G A63G C81U	0.59
U19C A86G U102C	1.7
U87C A90G U122C U131C	0.07
A51U A67G U122C	1.59
U12C A23G U39C U43A	0.75
G58A A59C U120C	0.97
U2A A95C U120A	1.75
U12C U39C A64G U108C	0.01
U102C G104C U132C	0.05
U19A U122C U127A	0.81
U72C A86G A90G	0.26
A11C U57G A60G U100A	0.34
A24U A47U C81U A126G	0.18
A11G U39A A92U A111G A117G U130C	0.01
A11G A54U A118G U130A	0.89
G41A C61U A68G A117G U122C	2.53
